Experimental data as given in the supplement of paper PMC12015411.
Bacterial growth in Mueller-Hinton broth at 37 °C with the drug at the dose given, alone or with nitroxoline. Checkerboards on E. coli BW25113: OD600 at the end of exponential growth as a fraction of no-drug wells. Colistin series: OD595 at 10.75 h as a fraction of the colistin-free well. 1 = full growth, lower = more inhibition. No active / inactive call per well. Checkerboard doses stop near each drug's IC75, and their values pile up at 1, as if capped there. Colistin and gentamicin are mixtures; one drawing stands for each.

Test system: Escherichia coli BW25113
Test: growth relative to no-drug wells (fraction of no-drug control); higher = more growth, less inhibition
Experimental: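 8 x 8 checkerboard in cation-adjusted Mueller-Hinton broth at 37 °C; OD600 at the end of exponential growth as a fraction of no-drug wells, two biological replicates.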

O=C(O)c1cn(C2CC2)c2cc(N3CCNCC3)c(F)cc2c1=O [Ciprofloxacin]
nitroxoline concentration 0 µg/ml
Settings	growth
0.0005 µg/ml	0.942
0.0008 µg/ml	0.904
0.001 µg/ml	0.9293
0.0016 µg/ml	0.835
0.0019 µg/ml	0.792
0.0033 µg/ml	0.469
0.0038 µg/ml	0.337

O=C(O)c1cn(C2CC2)c2cc(N3CCNCC3)c(F)cc2c1=O [Ciprofloxacin] + Oc1ccc([N+](=O)[O-])c2cccnc12 [nitroxoline]
growth
Settings	nitroxoline concentration 0.136 µg/ml	nitroxoline concentration 0.255 µg/ml	nitroxoline concentration 0.374 µg/ml	nitroxoline concentration 0.493 µg/ml	nitroxoline concentration 0.612 µg/ml	nitroxoline concentration 0.731 µg/ml	nitroxoline concentration 0.85 µg/ml
0.0005 µg/ml	1	1	0.839	0.653	0.585	0.469	0.432
0.0008 µg/ml	1	1	0.8	0.637	0.547	0.44	0.427
0.001 µg/ml	1	0.989	0.868	0.6767	0.553	0.507	0.426
0.0016 µg/ml	0.953	0.8922	0.781	0.636	0.535	0.51	0.436
0.0019 µg/ml	0.883	0.932	0.796	0.682	0.527	0.499	0.434
0.0033 µg/ml	0.551	0.703	0.589	0.486	0.445	0.365	0.376
0.0038 µg/ml	0.467	0.475	0.403	0.251	0.203	0.173	0.242

CC[C@H]1OC(=O)[C@H](C)[C@@H](O[C@H]2C[C@@](C)(OC)[C@@H](O)[C@H](C)O2)[C@H](C)[C@@H](O[C@@H]2O[C@H](C)C[C@H](N(C)C)[C@H]2O)[C@](C)(OC)C[C@@H](C)C(=O)[C@H](C)[C@@H](O)[C@]1(C)O [Clarithromycin]
nitroxoline concentration 0 µg/ml
Settings	growth
0.958 µg/ml	0.952
1.7983 µg/ml	0.913
2.6387 µg/ml	0.861
3.479 µg/ml	0.851
4.3193 µg/ml	0.785
5.1597 µg/ml	0.787
6 µg/ml	0.89

CC[C@H]1OC(=O)[C@H](C)[C@@H](O[C@H]2C[C@@](C)(OC)[C@@H](O)[C@H](C)O2)[C@H](C)[C@@H](O[C@@H]2O[C@H](C)C[C@H](N(C)C)[C@H]2O)[C@](C)(OC)C[C@@H](C)C(=O)[C@H](C)[C@@H](O)[C@]1(C)O [Clarithromycin] + Oc1ccc([N+](=O)[O-])c2cccnc12 [nitroxoline]
growth
Settings	nitroxoline concentration 0.136 µg/ml	nitroxoline concentration 0.255 µg/ml	nitroxoline concentration 0.374 µg/ml	nitroxoline concentration 0.493 µg/ml	nitroxoline concentration 0.612 µg/ml	nitroxoline concentration 0.731 µg/ml	nitroxoline concentration 0.85 µg/ml
0.958 µg/ml	0.759	0.708	0.62	0.539	0.405	0.298	0.252
1.7983 µg/ml	0.742	0.672	0.583	0.369	0.366	0.292	0.265
2.6387 µg/ml	0.692	0.625	0.501	0.559	0.424	0.3	0.254
3.479 µg/ml	0.698	0.588	0.484	0.384	0.296	0.273	0.245
4.3193 µg/ml	0.736	0.661	0.459	0.351	0.277	0.284	0.243
5.1597 µg/ml	0.732	0.602	0.471	0.326	0.216	0.219	0.227
6 µg/ml	0.782	0.515	0.428	0.315	0.255	0.234	0.255

Oc1c(I)cc(Cl)c2cccnc12 [Clioquinol]
nitroxoline concentration 0 µg/ml
Settings	growth
0.0938 µg/ml	0.965
0.1625 µg/ml	1
0.1875 µg/ml	1
0.325 µg/ml	0.922
0.375 µg/ml	0.942
0.65 µg/ml	0.9375
0.75 µg/ml	0.9674

Oc1c(I)cc(Cl)c2cccnc12 [Clioquinol] + Oc1ccc([N+](=O)[O-])c2cccnc12 [nitroxoline]
growth
Settings	nitroxoline concentration 0.136 µg/ml	nitroxoline concentration 0.255 µg/ml	nitroxoline concentration 0.374 µg/ml	nitroxoline concentration 0.493 µg/ml	nitroxoline concentration 0.612 µg/ml	nitroxoline concentration 0.731 µg/ml	nitroxoline concentration 0.85 µg/ml
0.0938 µg/ml	1	1	0.777	0.556	0.548	0.442	0.347
0.1625 µg/ml	1	1	0.738	0.559	0.502	0.478	0.281
0.1875 µg/ml	1	1	0.868	0.637	0.554	0.491	0.319
0.325 µg/ml	1	1	0.962	0.71	0.582	0.47	0.387
0.375 µg/ml	1	1	0.934	0.688	0.583	0.437	0.308
0.65 µg/ml	1	1	0.908	0.643	0.558	0.52	0.302
0.75 µg/ml	1	1	0.751	0.605	0.579	0.383	0.336
